The supplement of paper PMC10300432

Key:
[1] = biological target: SARS-CoV-2 Omicron BA.1 spike pseudovirus; experiment: pseudovirus neutralization IC50; higher = weaker neutralization
Protocol: (§1)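 Single-round luciferase reporter pseudovirus mixed with antibody dilutions and put on HT1080-ACE2 clone 14 cells for 48 h; signal relative to no-antibody wells, four-parameter fit.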

[2] = biological target: SARS-CoV-2 Omicron BA.4/5 spike pseudovirus; experiment: as above
Protocol: as §1

[3] = biological target: SARS-CoV-2 Wuhan-Hu-1 spike pseudovirus; experiment: as above
Protocol: as §1

[4] = biological target: SARS-CoV-2 Wuhan-Hu-1 spike receptor-binding domain; experiment: ELISA binding EC50; higher = weaker binding; ELISA of recombinant human antibody on coated antigen, from 10 µg/ml in fourfold dilutions; four-parameter fit.

Binder | pseudovirus neutralization IC50 [1] [mg/L] | pseudovirus neutralization IC50 [2] [mg/L] | pseudovirus neutralization IC50 [3] [mg/L] | ELISA binding EC50 [4] [mg/L]
C5141 (protein) chain 1: QLQLQESGPGLVKPSETLSLTCTVSGASINSDNYFWGWIRQPPGKGLEWIASIYYSGRTSYYNPSLKSRVTINVDTSKNQVSLKLSSLIAADTAVYYCARATWLRGGFDPWGQGTLVTVS chain 2: NFMLTQPQSVSESPGKTVTISCTGSSGSIASNYVHWYQQRPGSAPTIVIYEDTQRPSGVPDRFSGSIDSSSNSASLTISGLKTEDEADYYCQSYDVTNHYVFGPGTKVTVL | > 1 | > 1 | 0.17 | 0.00622
C5142 (protein) chain 1: EVQLVESGGGLVQPGGSLRLSCSASGFTFSSYAIHWVRQAPGRGLEYVSAISNDGGSTYNADSVRGRFTISRDNSKNTLYLQMRSLRAEDTAVYYCVKGTSSSYWGYFDYWGQGTLVTVSS chain 2: SYELTQPPSVSVAPGKTARITCGGNNIGSKSVHWYQQKPGQAPVVVVYDDSDRPSGIPERFSGSNSGNTATLTISRVEAGDEADYYCQVWDSSVVFGGGTKLTVL | > 1 | > 1 | 0.59 | 0.00507
C5143 (protein) chain 1: QVQLVESGGGVVQPGRSLRLSCEASGFTFRTYAMHWVRLAPGKGLEWLAVISYDGEDTNYADSVKGRFTISRDNSKNTLHLQLNSLRREDTAVYYCAKTLGPYCSAGSCYSGTMDYWGQGALVTVSS chain 2: DIQMTQSPSSLSASIGDSITITCQASHDISNHLNWYQQKPGKAPKLLINDASNLEAGVPSRFSGSGSGIDFTLSISSLQPEDIATYHCQQYDNLPWTFGQGTKVEI | > 1 | > 1 | > 1 | 0.0033
C5144 (protein) chain 1: QVQLVESGGGVVQPGRSLRLSCAASGFTFSTYGMHWVRQAPGKGLEWMAVVSSDGRNEYYADSVKGRFTISRDNSNNTLYLQMSGLRAEDTAVYYCAKSKVLWFGQLQARDYYYYGLDVWGQGTTVTVSS chain 2: AIRMTQSPSSLSASVGARVTITCRASQGISTSLAWYQQKPGKTPKLLIYDASNLESGAPSRFSGSGSGTDFTLTISSLQPEDFATYYCQQLINYPLTFGGGTKVEIK | > 1 | > 1 | 0.00207 | 0.0042
C5147 (protein) chain 1: QVQLQESGPGLVKPSETLSLTCNVSGASISDFYWSWIRQPPGKGLEWIGFIFYPGGTTYNPSLKSRVIMSVDTSKNQFSLNLTSVTAADTALYYCARQSTVTTYGGISFDPWGRGTLVTVSS chain 2: SYELTQPPSVSVSPGQTASITCSGDKLGHNYASWYQQKPGQSPVLVLYLDYRRPSGIPERFSGSKSGNAATLTISGTQAMDEADYYCQTWGSNTVVFGGGTKLTV | > 1 | 0.318 | 0.000701 | 0.00391
C5148 (protein) chain 1: QVQLQESGPGQVKPSETLSLTCTVSGDSVSSGSYYWSWIRQPPGKGLEWIGYVYYSGSTNYNPSLKSRVSMSVDTSKNQFSLKLNSVTAADTAVYYCARDSIVVRSAAYPLYYGMGVWGHGTTVTVSS chain 2: QSVLTQPPSASGTPGQRVTISCSGGSSNIGSNTVDWYQQLPGTAPKLLIYSNNQRSSGVPDRFSGSKSGTSASLAISGLQSEDEADYYCATWDHSLNVYYVFGTGTKVTVL | > 1 | > 1 | > 1 | 0.0127
C5149 (protein) chain 1: QVQLVESGGGVVQPGTSLRLSCGASGFPFNNYDMHWVRQAPGKGLEWMAVISKDGNMKFYADSVKGRFTISRDNSKRALHLQMSSLRTEDTAVYYCVRDNGRLVPVFDLWGQGTLVTVS chain 2: DIQMTQSPSSLSASVGDRVTITCRASQSIGGYLNWYQLKPGKAPKLLIYAASSLHTGVPSRFSGSGSGTDFTLTISSLQPEDFATYYCQQSYSTVSLTFGGGTKVEIK | 0.932 | > 1 | 0.211 | 0.00533
C5151 (protein) chain 1: QVQLQESGPGLVKPSETLSLICTVSGNSLSSYYWSWIRQSPGKGLEWIGHIDYSRSTNYNPSLKSRATISVDTSKNQVSLKLRSVTAADTAMYYCATRIAADAWTWFDPWGQGTLVTVSS chain 2: SYELTQPPSVSVAPGKTARVICGGNNIGNENVHWYQQKSGQAPVLVVYDNSNRPSGIPERFSGSNSGNTATLTISRVEAGDEADYYCQLWDRVSDHPVFGPGTMVTV | 0.00417 | 0.141 | 0.00212 | 0.00391
C5152 (protein) chain 1: QVQLQESGPGLVKPSETLSLTCSVSGDSLSSYYWNWIRQPPGKGLEWIAYIDYGGITNYNPALKSRVTISVDTSKNQLSLKVNSVTAADTAMYYCAGRISADVFTWLDPWGQGTLVTVSS chain 2: SYELTQPPSVSVAPGNTARISCGGNNIGSKSVHWYQQKPGQAPVLVVYDDRDRPPGIPERFSGSNSADTATLTINRVEAGDEADYSCQVWDSTSDHPVFGGGTKLTV | 0.0119 | > 1 | 0.00196 | 0.00367
C5153 (protein) chain 1: QVQLQESGPGLVKSSETLSLTCSVSGGSLSSYRWNWIRQPPGKGPEWIGYISYSGGKNHNPSLKSRLTISVDTSKNQISLKLTSVTAADTAVYYCAAMIDAPRYNWFYPWGHGTLVTVSS chain 2: SYELTQPPSVSVAPGKTARITCGGNNIRSKGVHWYQQKPGQAPVLVLYDDSDRPSGIPERFSGSNSGNTATLTISRVEDGDEAGYYCQVWENNSDHPIFGGGTKLTVL | 0.118 | > 1 | 0.000853 | 0.0036
C5037 (protein) chain 1: EVQLVESGGTLVQPGGSLRLSCGVSGFIVSANYMSWVRQAPGKGLEWLSVIFPDGHTYYGDSVKGRFTISRGDSENTLYLQMDSLRADDTAVYYCARDRRIGSPYHYYGMDFWGQGTTVTVSS chain 2: QSVLTQPPSAAGTPGQRVTISCSGSTSNIGSNFVNWYQQFPGAAPKLLIYSNDKRPSGVPDRFSGSKSGTSASLAISGLQSDDEADYYCSTWDDSLNGNVVFGGGTKLTVL | 0.141 | > 1 | 0.00126 | 0.00225
C5154 (protein) chain 1: QVQLVQSGAEVKKPGSSVKVSCKASGRTFSTYTITWVRQAPGQGLEWVGRIIPILGITDYAQKFQGRVTITADKSTTTAYMELSSLRSEDTAVYYCARDLLPHHYDSGISKDAFDIWGQGTMVTVSS chain 2: DIQMTQSPSSLSASVGDRVTITCRASQGISTYLNWYQQKPGNAPKLLIYAASSLQSGVPSRFSGSGSGTDFTLTISSLQPEDFATYYCQQSYSTPFTFGPGTKVDIK | 0.0202 | > 1 | 0.00737 | 0.00611
C5155 (protein) chain 1: EVQLVESGGGLVQPGGSLRLSCVASGFTFTDYDMHWVRQGPGQGLEWVSVIGTGGDTYYPDSVKGRFIISRDNAKNSFYLQMNSLRAGDTAVYYCARANYFGSSGYGDYHYGLDIWGQGTTVTV chain 2: EIVMTQSPATLSVSPGERATLSCRASQIVRTNLAWYQQKPGQAPRLLIYGASTRAAGIPARFSGSGSGTEFTLTISSLQSEDFAIYYCQQYNIWPPLTFGGGTKVEIK | > 1 | > 1 | 0.598 | 0.00281
C5157 (protein) chain 1: QVQLVESGGGVVQPGSSLRLSCAASGFSFSNYDMHWVRQAPGKGLEWVALISSDGNGKFYADSVKGRFTISRDNSKNTLNLQMNSLRPDDTAVYFCARDSPAHVIPLPLLDSWGQGTLVTVSS chain 2: DIQMTQSPSSLSASVGDRVTITCRASQSIINYLNWYQQKPGKAPKLLIYAASSLHSGVPSRFSGSGSGTDFTLTISSLQPEDFATYYCQQSYTTLALTFGGGTKVEIK | > 1 | > 1 | 0.94 | 0.00669
C5161 (protein) chain 1: QVQLVESGGGVVQPGRSLRLSCAASGLTFSHYGMHWVRQAPGKGLEWVAVISSDGSNQYYADSVRGRFTISRDNSKNTMNLQMNSLRREDTAVYYCAKGGFYDDTGYYGFDYWGQGALVTVS chain 2: EIVMTQSPTTLSVSPGERVTLSCRASQGIGTNLAWYQQKPGQAPRLLIYDASTRATGIPDRFSASGSETEFTLTITSLQSENIAVYYCQQYNGWPYTFGQGTKLEIK | > 1 | > 1 | 0.527 | 0.00639

Recombinant human monoclonal antibodies (heavy:light variable regions). ELISA EC50 on the named antigen, from 10 µg/ml down; IC50 against spike pseudovirus on HT1080-ACE2 cells, 48 h; lower = stronger. Calls: IC50 above 1,000 ng/ml = non-neutralizing; EC50 above 1,000 ng/ml = non-binder.
